Assay results published in patent publication US11618753B2 (priority 2018, dated 2023).

system: MLKL phosphorylation, HT29-L23 human colorectal adenocarcinoma cells; assay: cells; conditions: read-out: pMLKL HCS Cell Assay (IC50, uM)

Q: For `CCOc1ccc(-c2cc(C(F)(F)F)c3c(N)ncnn23)cc1C(=O)N[C@@H]1CN(C(=O)C2(F)CC2)C[C@@H]1F` [Example 1104, 5-[4-amino-5-(trifluoromethyl)pyrrolo[2,1-f][1,2,4]triazin-7-yl]-2-ethoxy-N-[(3R,4S)-4-fluoro-1-(1-fluorocyclopropanecarbonyl)pyrrolidin-3-yl]benzamide], which IC50 is on record?
A: 0.057 µM

Q: Which IC50 does the source give for `Cc1cc(C)c(-c2cc(C(F)(F)F)c3c(N)ncnn23)cc1C(=O)N[C@@H]1CN(C(=O)C2CCC(F)(F)CC2)C[C@@H]1F` [Example 539, 5-[4-amino-5-(trifluoromethyl)pyrrolo[2,1-f][1,2,4]triazin-7-yl]-N-[(3R,4S)-1-(4,4-difluorocyclohexanecarbonyl)-4-fluoropyrrolidin-3-yl]-2,4-dimethylbenzamide] here?
A: 0.055 µM

Q: Which IC50 does the source give for `CC(C)(O)CC(=O)N1C[C@H](F)[C@H](NC(=O)c2cc(-c3cc(C(F)(F)F)c4c(N)ncnn34)c(F)cc2Cl)C1` [Example 396, 5-[4-amino-5-(trifluoromethyl)pyrrolo[2,1-f][1,2,4]triazin-7-yl]-2-chloro-4-fluoro-N-[(3R,4S)-4-fluoro-1-(3-hydroxy-3-methylbutanoyl)pyrrolidin-3-yl] benzamide] here?
A: 0.145 µM

Q: How did the IC50 turn out when `COc1c(F)cc(-c2cc(C(F)(F)F)c3c(N)ncnn23)cc1C(=O)N[C@@H]1CN(C(=O)C2CCC(F)(F)CC2)C[C@@H]1F` [Example 689, 5-[4-amino-5-(trifluoromethyl)pyrrolo[2,1-f][1,2,4]triazin-7-yl]-N-[(3R,4S)-1-(4,4-difluorocyclohexanecarbonyl)-4-fluoropyrrolidin-3-yl]-3-fluoro-2-methoxybenzamide] was run?
A: 0.184 µM

Q: Which IC50 does the source give for `COc1ncc(-c2cc(C(F)(F)F)c3c(N)ncnn23)cc1C(=O)Nc1cn(C(C)c2ccc(F)cc2)cn1` (stereo not drawn) [Example 1774, 5-(4-amino-5-(trifluoromethyl)pyrrolo[2,1-f][1,2,4]triazin-7-yl)-N-(1-(1-(4-fluorophenyl)ethyl)-1H-imidazol-4-yl)-2-methoxynicotinamide] here?
A: 0.0027 µM

Q: With `Nc1ncnn2c(-c3ccc(C(F)(F)F)c(C(=O)N[C@@H]4CN(C(=O)C5CC(F)C5)C[C@@H]4F)c3)cc(C(F)(F)F)c12` (stereo partly drawn) [Example 893, 5-[4-amino-5-(trifluoromethyl)pyrrolo[2,1-f][1,2,4]triazin-7-yl]-N-[(3R,4S)-4-fluoro-1-(3-fluorocyclobutanecarbonyl)pyrrolidin-3-yl]-2-(trifluoromethyl)benzamide] as the compound, how does the IC50 read?
A: 0.017 µM

Q: For `Cc1cc(F)c(-c2cc(C(F)(F)F)c3c(N)ncnn23)cc1C(=O)N[C@@H]1CN(C(=O)c2nc(Cl)ccc2C(F)(F)F)C[C@@H]1F` [Example 853, 5-[4-amino-5-(trifluoromethyl)pyrrolo[2,1-f][1,2,4]triazin-7-yl]-N-[(3R,4S)-1-[6-chloro-3-(trifluoromethyl)pyridine-2-carbonyl]-4-fluoropyrrolidin-3-yl]-4-fluoro-2-methylbenzamide], which IC50 is on record?
A: 0.043 µM

Q: For `CC(CC(=O)N1C[C@H](F)[C@H](NC(=O)c2cc(-c3cc(C(F)(F)F)c4c(N)ncnn34)ccc2OC(F)F)C1)C(F)(F)F` (stereo partly drawn) [Example 1084, 5-[4-amino-5-(trifluoromethyl)pyrrolo[2,1-f][1,2,4]triazin-7-yl]-2-(difluoromethoxy)-N-[(3R,4S)-4-fluoro-1-(4,4,4-trifluoro-3-methylbutanoyl)pyrrolidin-3-yl]benzamide], which IC50 is on record?
A: 0.021 µM

Q: Which IC50 does the source give for `COc1ncc(-c2cc(CN3CCC(F)(F)CC3)c3c(N)ncnn23)cc1C(=O)N[C@@H]1CN(C(=O)OC(C)CC(F)(F)F)C[C@@H]1F` (stereo partly drawn) [Example 1505, 4,4,4-trifluorobutan-2-yl (3R,4S)-3-(5-{4-amino-5-[(4,4-difluoropiperidin-1-yl)methyl]pyrrolo[2,1-f][1,2,4]triazin-7-yl}-2-methoxypyridine-3-amido)-4-fluoropyrrolidine-1-carboxylate] here?
A: 0.0024 µM

Q: `COc1cc(-c2cc(C(F)(F)F)c3c(N)ncnn23)cc(C(=O)N[C@@H]2CN(C(=O)CC(O)(C(F)(F)F)C(F)(F)F)C[C@@H]2F)c1OC` [Example 593, 5-[4-amino-5-(trifluoromethyl)pyrrolo[2,1-f][1,2,4]triazin-7-yl]-N-[(3R,4S)-4-fluoro-1-[4,4,4-trifluoro-3-hydroxy-3-(trifluoromethyl)butanoyl]pyrrolidin-3-yl]-2,3-dimethoxybenzamide] was tested. Which IC50 did it give?
A: 0.039 µM

Q: For `C[C@@](O)(C(=O)N1C[C@H](F)[C@H](NC(=O)c2cc(-c3cc(CN4CCC(C(F)(F)F)CC4)c4c(N)ncnn34)ccc2Cl)C1)C(F)(F)F` [Example 1159, 5-(4-amino-5-{[4-(trifluoromethyl)piperidin-1-yl]methyl}pyrrolo[2,1-f][1,2,4]triazin-7-yl)-2-chloro-N-[(3R,4S)-4-fluoro-1-[(2R)-3,3,3-trifluro-2-hydroxy-2-methylpropanoyl]pyrrolidin-3-yl]benzamide], which IC50 is on record?
A: 0.00085 µM

Q: How did the IC50 turn out when `CCOc1ccc(-c2cc(C(F)(F)F)c3c(N)ncnn23)cc1C(=O)N[C@@H]1CN(C(=O)CC(C)C)C[C@@H]1F` [Example 1113, 5-[4-amino-5-(trifluoromethyl)pyrrolo[2,1-f][1,2,4]triazin-7-yl]-2-ethoxy-N-[(3R,4S)-4-fluoro-1-(3-methylbutanoyl)pyrrolidin-3-yl]benzamide] was run?
A: 0.029 µM

Q: How did the IC50 turn out when `Cc1nc(C)c(-c2cc(C(F)(F)F)c3c(N)ncnn23)cc1C(=O)N[C@@H]1CN(C(=O)C(C)(C)F)C[C@@H]1F` [Example 1183, 5-[4-amino-5-(trifluoromethyl)pyrrolo[2,1-f][1,2,4]triazin-7-yl]-N-[(3R,4S)-4-fluoro-1-(2-fluoro-2-methylpropanoyl)pyrrolidin-3-yl]-2,6-dimethylpyridine-3-carboxamide] was run?
A: 0.209 µM

Q: How did the IC50 turn out when `N#Cc1cc(-c2cccc(C(=O)Nc3cnn(Cc4ccccc4)c3)c2)n2ncnc(N)c12` [Example 6, 3-{4-amino-5-cyanopyrrolo[2,1-f][1,2,4]triazin-7-yl}-N-(1-benzyl-1H-pyrazol-4-yl)benzamide] was run?
A: 0.03 µM

Q: For `Cc1ccc(-c2cc(C(F)(F)F)c3c(N)ncnn23)cc1C(=O)N[C@@H]1CN(C(=O)c2ccc(Cl)cc2)C[C@@H]1F` [Example 1011, 5-[4-amino-5-(trifluoromethyl)pyrrolo[2,1-f][1,2,4]triazin-7-yl]-N-[(3R,4S)-1-(4-chlorobenzoyl)-4-fluoropyrrolidin-3-yl]-2-methylbenzamide], which IC50 is on record?
A: 0.015 µM

Q: With `Cc1ccc(-c2cc(C(F)(F)F)c3c(N)ncnn23)c(F)c1C(=O)N[C@@H]1CN(C(=O)C(C)(C)O)C[C@@H]1F` [Example 757, 3-[4-amino-5-(trifluoromethyl)pyrrolo[2,1-f][1,2,4]triazin-7-yl]-2-fluoro-N-[(3R,4S)-4-fluoro-1-(2-hydroxy-2-methylpropanoyl)pyrrolidin-3-yl]-6-methylbenzamide] as the compound, how does the IC50 read?
A: 0.234 µM

Q: `COc1ncc(-c2cc(C(F)(F)F)c3c(N)ncnn23)cc1C(=O)N[C@@H]1CN(C(=O)C2CC(F)(F)C2)C[C@@H]1C` [Example 298, 5-[4-amino-5-(trifluoromethyl)pyrrolo[2,1-f][1,2,4]triazin-7-yl]-N-[(3S,4S)-1-(3,3-difluorocyclo-butanecarbonyl)-4-methyl-pyrrolidin-3-yl]-2-methoxy-pyridine-3-carboxamide] was tested. Which IC50 did it give?
A: 0.187 µM

Q: With `Nc1ncnn2c(-c3ccc(Cl)c(C(=O)N[C@@H]4CN(C(=O)c5ccc(Cl)cc5)C[C@@H]4F)c3)cc(C(F)(F)F)c12` [Example 947, 5-[4-amino-5-(trifluoromethyl)pyrrolo[2,1-f][1,2,4]triazin-7-yl]-2-chloro-N-[(3R,4S)-1-(4-chlorobenzoyl)-4-fluoropyrrolidin-3-yl]benzamide] as the compound, how does the IC50 read?
A: 0.071 µM

Q: How did the IC50 turn out when `COc1ncc(-c2cc(CN3CCC(C(F)(F)F)C3)c3c(N)ncnn23)cc1C(=O)N[C@@H]1CN(C(=O)[C@@](C)(O)C(F)(F)F)C[C@@H]1F` (stereo partly drawn) [Example 1551, 5-(4-amino-5-{[3-(trifluoromethyl)pyrrolidin-1-yl]methyl}pyrrolo[2,1-f][1,2,4]triazin-7-yl)-N-[(3R,4S)-4-fluoro-1-[(2R)-3,3,3-trifluoro-2-hydroxy-2-methylpropanoyl]pyrrolidin-3-yl]-2-methoxypyridine-3-carboxamide] was run?
A: 0.0012 µM

Q: How did the IC50 turn out when `CCOC(=O)N1C[C@H](F)[C@H](NC(=O)c2cc(-c3cc(CN4CCC(F)(F)CC4)c4c(N)ncnn34)cnc2OC)C1` [Example 1500, ethyl (3R,4S)-3-(5-{4-amino-5-[(4,4-difluoropiperidin-1-yl)methyl]pyrrolo[2,1-f][1,2,4]triazin-7-yl}-2-methoxypyridine-3-amido)-4-fluoropyrrolidine-1-carboxylate] was run?
A: 0.0014 µM

Q: Which IC50 does the source give for `COc1ncc(-c2cc(CN3CCC(F)(F)CC3)c3c(N)ncnn23)cc1C(=O)N[C@@H]1CN(C(=O)c2c(F)cccc2Cl)C[C@@H]1F` [Example 1270, 5-{4-amino-5-[(4,4-difluoropiperidin-1-yl)methyl]pyrrolo[2,1-f][1,2,4]triazin-7-yl}-N-[(3R,4S)-1-(2-chloro-6-fluorobenzoyl)-4-fluoropyrrolidin-3-yl]-2-methoxypyridine-3-carboxamide] here?
A: 0.00079 µM

Q: `Nc1ncnn2c(-c3cccc(C(=O)N[C@@H]4CN(C(=O)C5CC5(F)F)C[C@@H]4F)c3)cc(C(F)(F)F)c12` (stereo partly drawn) [Example 107, 3-[4-amino-5-(trifluoromethyl)pyrrolo[2,1-f][1,2,4]triazin-7-yl]-N-[(3R,4S)-1-(2,2-difluorocyclopropanecarbonyl)-4-fluoropyrrolidin-3-yl]benzamide] was tested. Which IC50 did it give?
A: 0.05 µM

Q: For `CCOc1ccc(-c2cc(C(F)(F)F)c3c(N)ncnn23)cc1C(=O)N[C@@H]1CN(C(=O)CC(C(F)(F)F)C(F)(F)F)C[C@@H]1F` [Example 1110, 5-[4-amino-5-(trifluoromethyl)pyrrolo[2,1-f][1,2,4]triazin-7-yl]-2-ethoxy-N-[(3R,4S)-4-fluoro-1-[4,4,4-trifluoro-3-(trifluoromethyl)butanoyl]pyrrolidin-3-yl]benzamide], which IC50 is on record?
A: 0.018 µM

Q: With `Nc1ncnn2c(-c3cccc(C(=O)N[C@@H]4CN(C(=O)C5(C(F)(F)F)CCCC5)C[C@@H]4F)c3)cc(C(F)(F)F)c12` [Example 99, 3-[4-amino-5-(trifluoromethyl)pyrrolo[2,1-f][1,2,4]triazin-7-yl]-N-[(3R,4S)-4-fluoro-1-[1-(trifluoromethyl)cyclopentanecarbonyl]pyrrolidin-3-yl]benzamide] as the compound, how does the IC50 read?
A: 0.218 µM
